The list shows a part of the results. At the low end of the ranking the order means little.

Here are results for 172 sequences from PMC10668032.

This assay deals with SIX1 homeodomain (reference allele) (UniProt Q15475). Kind of assay: universal protein binding microarray. As to conditions: Universal all-10-mer PBM (8x60K, AMADID 030236), 300 nM GST-tagged protein, Alexa Fluor 488 anti-GST; buffer, salt, pH and temperature not stated; high values mean tight binding; most listed sequences are background and not binding sites; double strand, one strand shown.
In the case of CTACCGTC, the binding signal was -0.252 E-score.

Regarding TCGCTCCA, the binding signal was -0.076 E-score.

In the case of CGTGCAAC, the binding signal was -0.0892 E-score.

As for TACATAGA, the binding signal came to 0.0801 E-score.

GCACCTGC: the binding signal was -0.17 E-score.

For the sequence ATGTAAGG, the binding signal was -0.147 E-score.

For TTAAGCAA, the binding signal was -0.15 E-score.

On to CATGATGG, for which the binding signal is -0.139 E-score.

Regarding ACTGTAGG, the binding signal was -0.0417 E-score.

In the case of GGTCCAAA, the binding signal was -0.297 E-score.

For TCCGCCCA, the binding signal was determined as 0.0461 E-score.

For ATATGTTA, the binding signal turned out to be 0.12 E-score.

Consider ACCGTATA, for which the binding signal was determined as 0.278 E-score.

On to GAGCCAAC, for which the binding signal was -0.268 E-score.

For CCCAAGTA, the binding signal is -0.0046 E-score.

As for AGATGCAT, the binding signal was -0.0317 E-score.

As to GCCGAGAA, the binding signal was -0.194 E-score.

Take AGCTTCCC: the binding signal is -0.0879 E-score.

For the sequence CCACGTTC, the binding signal is -0.215 E-score.

In the case of ACCCCTGG, the binding signal stood at 0.193 E-score.

Regarding CTCCCAAA, the binding signal is -0.213 E-score.

As for GCACCGCA, the binding signal was -0.028 E-score.

For the sequence GGCAGCCA, the binding signal was -0.186 E-score.

Consider CTTACATC, for which the binding signal worked out at 0.00378 E-score.

For the sequence AACTATGT, the binding signal was -0.255 E-score.

Take GGTCACAC: the binding signal is 0.00178 E-score.

Regarding CTTGAACA, the binding signal is -0.141 E-score.

With ACTGGTAC, the binding signal is -0.0304 E-score.

Turning to AACGGTAA, the binding signal was -0.122 E-score.

Regarding CGTGAACG, the binding signal was -0.174 E-score.

With GCCAGCAC, the binding signal is -0.19 E-score.

As to AATTTGCT, the binding signal was -0.402 E-score.

Regarding GTAAAGCA, the binding signal was -0.143 E-score.

As for CTGAGGGC, the binding signal was -0.355 E-score.

Consider CTGAACTA, for which the binding signal was -0.0976 E-score.

For CGAACAAC, the binding signal was -0.109 E-score.

In the case of AGCTCAAG, the binding signal is -0.179 E-score.

For TGCTTCCA, the binding signal was -0.283 E-score.

CGACCCCC: the binding signal worked out at 0.055 E-score.

Consider ACTGTCGC, for which the binding signal was -0.207 E-score.

Consider CATTAATC, for which the binding signal was determined as 0.172 E-score.

For AAGGACAT, the binding signal is 0.0427 E-score.

For the sequence CGGTCTAC, the binding signal was -0.00532 E-score.

For the sequence CGTGCGAC, the binding signal was -0.0591 E-score.

Take GAGTTGGA: the binding signal was -0.0493 E-score.

As to ATTCCTCC, the binding signal was 0.0737 E-score.

For CGTCATGA, the binding signal amounted to 0.136 E-score.

Turning to ACCCTCGG, the binding signal came out at 0.0367 E-score.

In the case of TTCAAAAA, the binding signal is -0.115 E-score.

For AACTATCA, the binding signal was determined as 0.126 E-score.

As for AGTCGAAT, the binding signal is -0.105 E-score.

Consider CTGCCTTC, for which the binding signal is -0.22 E-score.

Turning to CCCAACGG, the binding signal was -0.124 E-score.

For the sequence CGGAGAGA, the binding signal stood at 0.0698 E-score.

With GAGTATAC, the binding signal worked out at 0.262 E-score.

As for ACGGCTAG, the binding signal is -0.0762 E-score.

With CCCTGCGG, the binding signal came out at 0.154 E-score.

For GTAAGAGA, the binding signal was -0.0676 E-score.

As to GGCTGTAA, the binding signal is -0.116 E-score.

In the case of AGAAGCCT, the binding signal came to 0.0392 E-score.

On to GTGGTAAC, for which the binding signal is -0.00979 E-score.

With ACCGTTGG, the binding signal is -0.0509 E-score.

AATCCGAC: the binding signal came to 0.189 E-score.

For AAACTGGT, the binding signal came out at 0.0866 E-score.

On to AATCCACA, for which the binding signal turned out to be 0.104 E-score.

As for ATTTGGCA, the binding signal is -0.17 E-score.

Regarding GAGTCCAC, the binding signal is -0.102 E-score.

With GACTAACA, the binding signal was -0.222 E-score.

As to CTCCTTTA, the binding signal is -0.162 E-score.

With GATAGCAC, the binding signal came out at 0.236 E-score.

As for ACAAGGTC, the binding signal was -0.115 E-score.

Turning to ACCCATAG, the binding signal worked out at 0.0323 E-score.

For the sequence CACTCTGC, the binding signal is -0.0396 E-score.

Turning to GATTTTTA, the binding signal was -0.0609 E-score.

On to AGTAATAC, for which the binding signal was found to be 0.255 E-score.

For AGCGCAAG, the binding signal was -0.12 E-score.

Turning to AGACATAG, the binding signal was -0.0344 E-score.

Turning to AAATCAAA, the binding signal was -0.172 E-score.

ACCGTTAG: the binding signal is -0.0683 E-score.

Consider CGTCCGAG, for which the binding signal was -0.146 E-score.

For TAATGACA, the binding signal was found to be 0.0663 E-score.

For the sequence CAGTGCGG, the binding signal was -0.143 E-score.

For CTTAGATC, the binding signal amounted to 0.158 E-score.

As for ACATCTAC, the binding signal turned out to be 0.132 E-score.

ATATCTGC: the binding signal amounted to 0.346 E-score.

For the sequence GAGGCTGA, the binding signal is -0.0454 E-score.

As to ATGCAACC, the binding signal was -0.0231 E-score.

For the sequence CACACCCC, the binding signal was 0.26 E-score.

CCGCTTAC: the binding signal was -0.109 E-score.

Consider CATTTGAA, for which the binding signal was -0.136 E-score.

Turning to CTTATATC, the binding signal turned out to be 0.292 E-score.

CATATTTA: the binding signal came out at 0.125 E-score.

On to CCCTGGTA, for which the binding signal came to 0.114 E-score.

In the case of ATCCGGTA, the binding signal was found to be 0.318 E-score.

In the case of CAGCTTCC, the binding signal was -0.171 E-score.

Regarding GCGGTTAC, the binding signal was -0.0321 E-score.

As for AGCTGCCT, the binding signal is -0.193 E-score.

Take GATTCCTA: the binding signal is -0.0441 E-score.

On to CAGATAAC, for which the binding signal came out at 0.191 E-score.

Regarding ACCCAGCC, the binding signal was -0.153 E-score.

Consider GCTGTATA, for which the binding signal stood at 0.232 E-score.

On to GGGGTACA, for which the binding signal worked out at 0.143 E-score.

On to AGGGCGGA, for which the binding signal was 0.0721 E-score.

As for CTTCTACA, the binding signal is 0.0601 E-score.

As to CTAGATTC, the binding signal was -0.0563 E-score.

In the case of CGTACAAG, the binding signal is -0.113 E-score.

Regarding GCCTAACA, the binding signal was -0.104 E-score.

For the sequence AATTCTCA, the binding signal is -0.124 E-score.

With GGCTTTCA, the binding signal was determined as 0.00887 E-score.

Take GACCTTAA: the binding signal is -0.19 E-score.

On to ACCTACTC, for which the binding signal was -0.112 E-score.

Regarding CTCCTCTC, the binding signal is -0.0704 E-score.

Consider ACGTGTGA, for which the binding signal is -0.0277 E-score.

Regarding CGCGCCCC, the binding signal is 0.0198 E-score.

Regarding AAGTTAGC, the binding signal is -0.266 E-score.

Take GGAACGGA: the binding signal was -0.0283 E-score.

On to GGAGTAAA, for which the binding signal was 0.146 E-score.

In the case of TGGCTAAA, the binding signal was -0.206 E-score.

For GACAGGGA, the binding signal worked out at 0.0206 E-score.

Consider GGTGAGAC, for which the binding signal worked out at 0.153 E-score.

For the sequence GAGTTCGC, the binding signal was -0.221 E-score.

With ACTATAAG, the binding signal is -0.0155 E-score.

Turning to CAATCATC, the binding signal is -0.095 E-score.

Take CATGTCTC: the binding signal is 0.151 E-score.

On to TATAACCA, for which the binding signal was determined as 0.0944 E-score.

Regarding CGCGCTAG, the binding signal was -0.0744 E-score.

As to CTTTGTCC, the binding signal was -0.242 E-score.

Consider GGGTAGCA, for which the binding signal amounted to 0.0391 E-score.

On to AAGAAGGT, for which the binding signal was -0.0425 E-score.

Consider CACACTAC, for which the binding signal turned out to be 0.0422 E-score.

As to AGAAACGC, the binding signal is -0.138 E-score.

With ATCTTTAC, the binding signal is -0.0176 E-score.

TAGGAAGA: the binding signal was -0.0973 E-score.

Turning to CTAGGTAC, the binding signal is -0.175 E-score.

For AATAATTA, the binding signal was -0.115 E-score.

Take AAACTACC: the binding signal was -0.212 E-score.

As to TCCTGAGA, the binding signal was determined as 0.0926 E-score.

As to GCCCCTTA, the binding signal was -0.0427 E-score.

Take AGTTTCCC: the binding signal was -0.171 E-score.

As for ACGATTTA, the binding signal was determined as 0.0068 E-score.

Consider ATCACCGG, for which the binding signal turned out to be 0.291 E-score.

For ATTTAAAG, the binding signal was -0.0093 E-score.

As to GGAGACCA, the binding signal is -0.0281 E-score.

As for AGTACGTG, the binding signal was -0.115 E-score.

Regarding ACTCCAAT, the binding signal was -0.0381 E-score.

As for CGGTACGA, the binding signal was determined as 0.125 E-score.

For CAAATCGA, the binding signal was -0.164 E-score.

Regarding ACACTAAG, the binding signal was -0.0747 E-score.

For AGCGCAGA, the binding signal is -0.116 E-score.

In the case of AGAAGTTG, the binding signal is -0.218 E-score.

As for AGAAATCG, the binding signal was -0.183 E-score.

ACTGCTCC: the binding signal was -0.254 E-score.

In the case of ATGTGAAA, the binding signal is -0.162 E-score.

As to AAGATTCG, the binding signal was -0.0816 E-score.

Regarding ACCAGTAG, the binding signal came to 0.00605 E-score.

ATCCAAGG: the binding signal is 0.173 E-score.

Consider CACTCATG, for which the binding signal was 0.187 E-score.

On to GAACAAGA, for which the binding signal came to 0.0989 E-score.

Turning to ATCTCTAA, the binding signal came out at 0.0729 E-score.

On to AAGCGATG, for which the binding signal was -0.17 E-score.

For the sequence GATGTACA, the binding signal was -0.0623 E-score.

In the case of AAACCTCT, the binding signal is -0.00703 E-score.

Consider AACGACGG, for which the binding signal is -0.151 E-score.

In the case of AAGAGGTG, the binding signal amounted to 0.0276 E-score.

For the sequence GGGATCGA, the binding signal came out at 0.385 E-score.

As for AGGTTTGA, the binding signal is -0.158 E-score.

On to AGCAGGGG, for which the binding signal was -0.0745 E-score.

Turning to AAACCGCG, the binding signal is -0.132 E-score.

On to ACTCATAA, for which the binding signal is 0.0882 E-score.

Take GATCGTAC: the binding signal turned out to be 0.274 E-score.

In the case of ACCCATGC, the binding signal came out at 0.00469 E-score.

For CACCGATG, the binding signal is 0.215 E-score.
